Our source for the binding signal values is paper PMC9911399, “Two distinct binding modes provide the RNA-binding protein RbFox with extraordinary sequence specificity”.

Positions count from the first letter of the chain named. This is one part of the list.

Sequences and labels used below:
B1: CCAGACU (DNA:RNA)
RNA: GGGAGACCGGAAUUCAGAUUGUCCCCAGACUUUAAAUCCCGUCGUAGCCACCA
DNA 1: CAATCTGAATTCCGGTCTCCC
DNA 2: TGGTGGCTACGACGGGATT
B2: UCCGUUA (DNA:RNA)
RNA: B1 RNA with C25U, A27C, A29U, C30U, U31A
DNA 1: CAATCTGAATTCCGGTCTCCC
DNA 2: TGGTGGCTACGACGGGATT
B3: UGAGUGC (DNA:RNA)
RNA: B1 RNA with C25U, C26G, A29U, C30G, U31C
DNA 1: CAATCTGAATTCCGGTCTCCC
DNA 2: TGGTGGCTACGACGGGATT
B4: AAUAACG (DNA:RNA)
RNA: B1 RNA with C25A, C26A, A27U, G28A, U31G
DNA 1: CAATCTGAATTCCGGTCTCCC
DNA 2: TGGTGGCTACGACGGGATT
B5: GCCCCCC (DNA:RNA)
RNA: B1 RNA with C25G, A27C, G28C, A29C, U31C
DNA 1: CAATCTGAATTCCGGTCTCCC
DNA 2: TGGTGGCTACGACGGGATT
B6: GGCUUUA (DNA:RNA)
RNA: GGGAGACCGGAAUUCAGAUUGUCCGGCUUUAUUAAAUCCCGUCGUAGCCACCA
DNA 1: CAATCTGAATTCCGGTCTCCC
DNA 2: TGGTGGCTACGACGGGATT
B7: AAAGUAG (DNA:RNA)
RNA: B1 RNA with C25A, C26A, A29U, C30A, U31G
DNA 1: CAATCTGAATTCCGGTCTCCC
DNA 2: TGGTGGCTACGACGGGATT
B8: AGAUUGA (DNA:RNA)
RNA: B6 RNA with G25A, C27A, U30G
DNA 1: CAATCTGAATTCCGGTCTCCC
DNA 2: TGGTGGCTACGACGGGATT
B9: GAGGAAG (DNA:RNA)
RNA: B1 RNA with C25G, C26A, A27G, C30A, U31G
DNA 1: CAATCTGAATTCCGGTCTCCC
DNA 2: TGGTGGCTACGACGGGATT
B10: GCAAGCU (DNA:RNA)
RNA: B1 RNA with C25G, G28A, A29G
DNA 1: CAATCTGAATTCCGGTCTCCC
DNA 2: TGGTGGCTACGACGGGATT
B11: UGAUCUG (DNA:RNA)
RNA: B6 RNA with G25U, C27A, U29C, A31G
DNA 1: CAATCTGAATTCCGGTCTCCC
DNA 2: TGGTGGCTACGACGGGATT
B12: GCAUAGG (DNA:RNA)
RNA: B1 RNA with C25G, G28U, C30G, U31G
DNA 1: CAATCTGAATTCCGGTCTCCC
DNA 2: TGGTGGCTACGACGGGATT
B13: UUAUAAA (DNA:RNA)
RNA: B1 RNA with C25U, C26U, G28U, C30A, U31A
DNA 1: CAATCTGAATTCCGGTCTCCC
DNA 2: TGGTGGCTACGACGGGATT
B14: CCUGCGU (DNA:RNA)
RNA: B1 RNA with A27U, A29C, C30G
DNA 1: CAATCTGAATTCCGGTCTCCC
DNA 2: TGGTGGCTACGACGGGATT
B15: AUCAGGU (DNA:RNA)
RNA: B1 RNA with C25A, C26U, A27C, G28A, A29G, C30G
DNA 1: CAATCTGAATTCCGGTCTCCC
DNA 2: TGGTGGCTACGACGGGATT
B16: AAAAUUA (DNA:RNA)
RNA: B6 RNA with G25A, G26A, C27A, U28A
DNA 1: CAATCTGAATTCCGGTCTCCC
DNA 2: TGGTGGCTACGACGGGATT
B17: UCAUACU (DNA:RNA)
RNA: B1 RNA with C25U, G28U
DNA 1: CAATCTGAATTCCGGTCTCCC
DNA 2: TGGTGGCTACGACGGGATT
B18: UCUGCUG (DNA:RNA)
RNA: B1 RNA with C25U, A27U, A29C, C30U, U31G
DNA 1: CAATCTGAATTCCGGTCTCCC
DNA 2: TGGTGGCTACGACGGGATT
B19: GCAUUCU (DNA:RNA)
RNA: B1 RNA with C25G, G28U, A29U
DNA 1: CAATCTGAATTCCGGTCTCCC
DNA 2: TGGTGGCTACGACGGGATT
B20: UCUUGAA (DNA:RNA)
RNA: B6 RNA with G25U, G26C, C27U, U29G, U30A
DNA 1: CAATCTGAATTCCGGTCTCCC
DNA 2: TGGTGGCTACGACGGGATT
B21: UGAUCAA (DNA:RNA)
RNA: B6 RNA with G25U, C27A, U29C, U30A
DNA 1: CAATCTGAATTCCGGTCTCCC
DNA 2: TGGTGGCTACGACGGGATT
B22: CAGACAC (DNA:RNA)
RNA: B1 RNA with C26A, A27G, G28A, A29C, C30A, U31C
DNA 1: CAATCTGAATTCCGGTCTCCC
DNA 2: TGGTGGCTACGACGGGATT
B23: UAUCUCU (DNA:RNA)
RNA: B1 RNA with C25U, C26A, A27U, G28C, A29U
DNA 1: CAATCTGAATTCCGGTCTCCC
DNA 2: TGGTGGCTACGACGGGATT
B24: ACUCUAU (DNA:RNA)
RNA: B1 RNA with C25A, A27U, G28C, A29U, C30A
DNA 1: CAATCTGAATTCCGGTCTCCC
DNA 2: TGGTGGCTACGACGGGATT
B25: GCUGGAU (DNA:RNA)
RNA: B1 RNA with C25G, A27U, A29G, C30A
DNA 1: CAATCTGAATTCCGGTCTCCC
DNA 2: TGGTGGCTACGACGGGATT
B26: CGGGGGC (DNA:RNA)
RNA: B1 RNA with C26G, A27G, A29G, C30G, U31C
DNA 1: CAATCTGAATTCCGGTCTCCC
DNA 2: TGGTGGCTACGACGGGATT
B27: UAGUCUG (DNA:RNA)
RNA: B6 RNA with G25U, G26A, C27G, U29C, A31G
DNA 1: CAATCTGAATTCCGGTCTCCC
DNA 2: TGGTGGCTACGACGGGATT
B28: CGGGUGA (DNA:RNA)
RNA: B6 RNA with G25C, C27G, U28G, U30G
DNA 1: CAATCTGAATTCCGGTCTCCC
DNA 2: TGGTGGCTACGACGGGATT
B29: CCACUUA (DNA:RNA)
RNA: B1 RNA with G28C, A29U, C30U, U31A
DNA 1: CAATCTGAATTCCGGTCTCCC
DNA 2: TGGTGGCTACGACGGGATT
B30: AGUGCAU (DNA:RNA)
RNA: B1 RNA with C25A, C26G, A27U, A29C, C30A
DNA 1: CAATCTGAATTCCGGTCTCCC
DNA 2: TGGTGGCTACGACGGGATT
B31: GGAGAGC (DNA:RNA)
RNA: B1 RNA with C25G, C26G, C30G, U31C
DNA 1: CAATCTGAATTCCGGTCTCCC
DNA 2: TGGTGGCTACGACGGGATT

The experiment addresses T1, RBFOX1 RRM (Homo sapiens, UniProt Q9NWB1 109-208).
T1 sequence: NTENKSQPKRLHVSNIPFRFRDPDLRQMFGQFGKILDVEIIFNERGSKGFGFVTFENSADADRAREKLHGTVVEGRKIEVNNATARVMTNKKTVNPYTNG
Description: EMSA; HiTS-Eq, 1 nM pool, 10 min; buffer printed only for the single-RNA assays: 10 mM Tris pH 7.5, 150 mM NaCl, 3.4 mM EDTA, 0.001% NP-40, 30 C. The note with it: tags: His6 N-terminal (pET28a); label: 5' 32P. In short, it runs like this:
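Purified RbFox RRM, wild type or mutant, was incubated for 10 min in 50 µL with 1 nM of a 5′-radiolabelled RNA pool carrying 7 randomized nucleotides, whose flanks were annealed to DNA oligonucleotides, over a series of increasing protein concentrations. Unbound RNA was resolved on 8% native PAGE, cut out, reverse-transcribed, barcoded by PCR and sequenced on an Illumina HiSeq 2500. Relative association constants were derived from changes in read counts for each RNA species versus the control reaction and normalised to the cognate motif.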
On the technique in general: In EMSA bound probe runs differently from free probe, usually more slowly.
B1: the binding signal is 0.00858 KA relative to UGCAUGU. For B2, the binding signal is 0.00479 KA relative to UGCAUGU. As for B3, the figure is 0.0254 KA relative to UGCAUGU. Regarding B4, the binding signal was 0.00173 KA relative to UGCAUGU. As to B5, the binding signal is 0.00549 KA relative to UGCAUGU. As for B6, the figure is 0.0161 KA relative to UGCAUGU. As for B7, the binding signal was 0.00465 KA relative to UGCAUGU.

For the molecule B8, the binding signal was 0.0124 KA relative to UGCAUGU. Turning to B9, the binding signal was 0.0138 KA relative to UGCAUGU. For B10, the binding signal is 0.011 KA relative to UGCAUGU. On to B11, for which the binding signal was 0.0254 KA relative to UGCAUGU. Take B12: the binding signal is 0.0105 KA relative to UGCAUGU. For B13, the binding signal is 0.00877 KA relative to UGCAUGU. On to B14, for which the binding signal is 0.011 KA relative to UGCAUGU. Take B15: the binding signal was 0.00694 KA relative to UGCAUGU.

As for B16, the binding signal is 0.000224 KA relative to UGCAUGU. As to B17, the binding signal is 0.000544 KA relative to UGCAUGU. Regarding B18, the binding signal was 0.023 KA relative to UGCAUGU. For B19, the binding signal was 0.0117 KA relative to UGCAUGU. In the case of B20, the binding signal is 0.0145 KA relative to UGCAUGU. With B21, the binding signal is 0.0102 KA relative to UGCAUGU. As for B22, the figure is 0.00346 KA relative to UGCAUGU. Take B23: the binding signal was 0.00431 KA relative to UGCAUGU.

With B24, the binding signal is 0.00106 KA relative to UGCAUGU. Consider B25, for which the binding signal is 0.0131 KA relative to UGCAUGU. For B26, the binding signal was 0.0168 KA relative to UGCAUGU.

B27: the binding signal was 0.0213 KA relative to UGCAUGU.

As to B28, the binding signal is 0.0241 KA relative to UGCAUGU. As for B29, the figure is 0.00338 KA relative to UGCAUGU. B30: the binding signal is 0.0168 KA relative to UGCAUGU. With B31, the binding signal was 0.0169 KA relative to UGCAUGU.
